# Reference: the BET-seq Pho4 binding data (Le et al. 2018)
# This is one part of the list. These are noisy estimates, calculated here from bound and input reads.
# Molecular target: T1, Pho4 (S. cerevisiae) (UniProt P07270)
# T1 sequence: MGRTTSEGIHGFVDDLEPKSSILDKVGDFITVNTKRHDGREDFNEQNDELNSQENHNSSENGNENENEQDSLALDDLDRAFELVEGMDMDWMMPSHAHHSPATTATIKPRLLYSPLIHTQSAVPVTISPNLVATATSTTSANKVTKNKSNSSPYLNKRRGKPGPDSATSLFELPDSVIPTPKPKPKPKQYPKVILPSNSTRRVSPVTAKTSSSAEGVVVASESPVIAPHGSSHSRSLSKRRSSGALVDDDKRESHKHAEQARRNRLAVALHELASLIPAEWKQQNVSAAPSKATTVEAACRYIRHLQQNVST
# Assay: relative binding free energy (BET-seq); higher = weaker binding
# Details: reference: library average
row,Sequence,relative binding free energy [kcal/mol]
1,TTAGACACGTGGAGGG,0
2,CATGACACGTGGTTTA,0.04
3,TAGGACACGTGTGTAG,0.06
4,GTGAGCACGTGGTTTC,-0.08
5,AGAATCACGTGGAGGA,0.21
6,ATGTGCACGTGGTGAA,-0.26
7,AGCATCACGTGTTAGG,0.16
8,TTTAGCACGTGAGGCC,0.2
9,TGGAGCACGTGATTGT,0.01
10,GCGACCACGTGGTGTT,0.03
11,GTGTACACGTGTTATG,0.17
12,GGTGGCACGTGGGCCC,-0.09
13,ACGGGCACGTGTATGT,-0.1
14,AGTAGCACGTGATGGG,0.02
15,GGCTTCACGTGTGAGG,0.39
16,GGGGTCACGTGCGTAA,0.11
17,TGCGGCACGTGTGGAC,-0.08
18,ATGTGCACGTGCGTAT,-0.08
19,CCGTGCACGTGGTTGT,-0.05
20,TTAGTCACGTGATCTG,0.03
21,TGACTCACGTGGAGGG,-0.01
22,AGATGCACGTGGTGTT,-0.11
23,GACATCACGTGGGTTT,0.27

row,Sequence,relative binding free energy [kcal/mol]
1,TCTGTCACGTGGGTTT,0.04
2,AGGTGCACGTGCTGCG,-0.22
3,AGGGTCACGTGCTGCT,0.09
4,GGTGACACGTGCGTGT,0.01
5,TTTGGCACGTGGGAAT,-0.19
6,AGTTTCACGTGGATCA,0.22
7,TATAACACGTGTGCGG,-0.05
8,TTTAACACGTGTGGGA,0.06
9,TGGGTCACGTGTACGC,0.1
10,GGTTTCACGTGTAATC,0.31
11,GTGTACACGTGGGTTG,-0.09
12,TGTGACACGTGGCAGG,-0.05
13,TTGTGCACGTGGTATA,-0.15
14,AATGGCACGTGGGCTG,-0.21
15,GCGTGCACGTGCGGGG,-0.09
16,CTGGGCACGTGAGGTG,0.03
17,ATCATCACGTGGGTAG,0.15
18,AAGTTCACGTGGTATC,0.37
19,GTTAACACGTGTGGAA,0.22
20,GGCTGCACGTGAGGCG,0.23
21,ATATACACGTGGGAAG,-0.03
22,CTAATCACGTGTTTGT,0.12
23,GTTGACACGTGGGGGA,-0.06

row,Sequence,relative binding free energy [kcal/mol]
1,TACGCCACGTGTGGGT,-0.02
2,TGTTTCACGTGGCGAT,0.24
3,TTGGTCACGTGAAGAC,0.45
4,GGTTGCACGTGTCGAT,0.21
5,AATTGCACGTGAGATT,0.27
6,TTGGGCACGTGCTGTC,-0.14
7,GTTAGCACGTGTTTGT,-0.06
8,AGATACACGTGTTGTT,0.11
9,AGGGGCACGTGATAAA,-0.06
10,CTGTTCACGTGTGGGT,0.38
11,TAGTTCACGTGCAAGG,0.28
12,ATAGTCACGTGGGGAT,-0.02
13,GGACTCACGTGTTTGG,0.38
14,AGGATCACGTGTTTAT,0.23
15,CTAGACACGTGGGGTT,-0.17
16,CTGCTCACGTGCGTGG,0.15
17,TATCACACGTGGAGGT,0.1
18,CTTTGCACGTGTAGTA,-0.06
19,AGGGGCACGTGCTGAG,-0.28
20,CGGTCCACGTGTGTTT,0.05
21,TGTAACACGTGGTAGC,0.09
22,ATGCACACGTGTGGTT,0.01
23,AGTGCCACGTGTTGTT,-0.01

row,Sequence,relative binding free energy [kcal/mol]
1,GGCTTCACGTGGATGG,0.35
2,TAGGACACGTGGTGGA,0.01
3,AGGTGCACGTGTGCAT,-0.25
4,CTGCGCACGTGGTGGA,-0.23
5,GGCAGCACGTGTTGAG,-0.05
6,GATTGCACGTGCGGGG,0.08
7,TGATGCACGTGTGCGG,-0.14
8,TATGGCACGTGACGGA,-0.07
9,CGTTTCACGTGGGGAC,0.23
10,CGCTGCACGTGTAGGG,0.03
11,TAATACACGTGGGAGT,0.09
12,GGGATCACGTGAGGAT,0.45
13,GAGTGCACGTGTAATG,0.12
14,AGGGGCACGTGAGACA,0.04
15,CATAGCACGTGGTTTT,-0.06
16,TGGTCCACGTGGTTCG,-0.05
17,CGAGGCACGTGTTGTA,-0.12
18,ATTCGCACGTGGGTGA,-0.32
19,TTACGCACGTGATGGG,0.14
20,AGTCTCACGTGATGGT,0.27
21,CGGTTCACGTGTCGGT,0.25
22,GGGGACACGTGATTTT,0.13
23,GATTGCACGTGGATGT,0.02

row,Sequence,relative binding free energy [kcal/mol]
1,TGTCGCACGTGAGTTC,0.24
2,TACGGCACGTGGATGG,0.02
3,CTGTACACGTGCTTGT,0.05
4,GGTTACACGTGTGGCC,0.3
5,CATGGCACGTGTTTTA,-0.21
6,TCATACACGTGATGGG,0.14
7,CGTGTCACGTGTAGTC,-0.01
8,TTGTTCACGTGGGAGT,0.28
9,CTATACACGTGGGGTG,-0.15
10,TTGTGCACGTGAATAT,0.31
11,GTCGTCACGTGAGGGA,0.18
12,TTGCGCACGTGCGAGG,-0.25
13,GAAGCCACGTGGGGCG,-0.14
14,GTGGCCACGTGAGGAT,0.17
15,TCACGCACGTGTGAGG,0.02
16,GTCTTCACGTGGTGGC,0.33
17,AGGGACACGTGACGGT,0.09
18,TCTGGCACGTGGGTGC,-0.28
19,TGTAACACGTGTAAGG,0.24
20,AGTTCCACGTGATGTG,0.21
21,GTGCACACGTGCTGGG,-0.04
22,CGTTGCACGTGGTAAA,-0.06
23,GTATGCACGTGAGTCT,0.24
